# Source: the supplement of paper PMC10037445
# Over roughly 2,900 compounds, “NF-kB SEAP reporter activity, fold change vs agonist alone” has its median near 0.99; the highest 2% begin near 2.6. Some of the results follow.
# Assays:
# [1] = test system: RAW-Dual; assay: NF-kB SEAP reporter activity, fold change vs agonist alone; higher = enhanced NF-kB activity; details: library stock concentration (final ~1000-fold dilution): 10 mM, cytotoxicity flag (confluency mask): not cytotoxic
# Procedure, shortened: (§1)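 Reporter activity is given as fold change relative to agonist-alone wells. To measure it, 50 nL of library stock was pin-tooled onto RAW-Dual macrophages (50,000 cells/well, DMEM, 384-well plates), a PRR agonist followed 1 h later, and cells stayed at 37 °C, 5% CO2. Twenty hours on, supernatant was assayed for IRF (QuantiLuc luminescence) and NF-κB (QuantiBlue, 620 nm absorbance), and wells under 70% of agonist-control IncuCyte confluency in both mask sets were marked cytotoxic.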
# [2] = test system: RAW-Dual; assay: NF-kB SEAP reporter activity, fold change vs agonist alone; cytotoxicity flag (confluency mask): not cytotoxic; higher = enhanced NF-kB activity
# Procedure, shortened: as §1
# [3] = test system: RAW-Dual; assay: NF-kB SEAP reporter activity, fold change vs agonist alone; cytotoxicity flag (confluency mask): cytotoxic (confluency <70% of control); higher = enhanced NF-kB activity; details: agonist: LPS (TLR4) 0.1 ug/mL
# Procedure, shortened: as §1
# [4] = agonist: ODN 1826 (TLR9) 0.5 ug/mL
# [5] = agonist: Pam2CSK4 (TLR2/6) 0.1 ug/mL
# [6] = agonist: Pam3CSK4 (TLR2/1) 0.1 ug/mL
compound,measurement,setting,value
Cn1c(=O)c2c(ncn2CC(O)CO)n(C)c1=O (stereo unspecified),NF-kB SEAP reporter activity,[1]; agonist: Imiquimod (TLR7) […],0.966
same,NF-kB SEAP reporter activity,[1]; agonist: MPLA (TLR4) […],1.02
Nc1nccs1 (library stock concentration (final ~1000-fold dilution): 10 mM),NF-kB SEAP reporter activity,[2]; agonist: LPS (TLR4) 0.1 ug/mL,1.18
same,NF-kB SEAP reporter activity,[2]; [4],0.997
same,NF-kB SEAP reporter activity,[2]; [5],1.16
same,NF-kB SEAP reporter activity,[2]; [6],1.1
Nc1nccs1,NF-kB SEAP reporter activity,[1]; agonist: Imiquimod (TLR7) […],0.921
same,NF-kB SEAP reporter activity,[1]; agonist: MPLA (TLR4) […],1.08
O=S(=O)(NC1CCNCC1)c1cc(S(=O)(=O)c2ccccc2)ccc1C(F)(F)F (library stock concentration (final ~1000-fold dilution): 10 mM),NF-kB SEAP reporter activity,[2]; agonist: LPS (TLR4) 0.1 ug/mL,0.949
same,NF-kB SEAP reporter activity,[2]; [4],0.764
same,NF-kB SEAP reporter activity,[2]; [5],0.923
same,NF-kB SEAP reporter activity,[2]; [6],0.978
O=S(=O)(NC1CCNCC1)c1cc(S(=O)(=O)c2ccccc2)ccc1C(F)(F)F,NF-kB SEAP reporter activity,[1]; agonist: Imiquimod (TLR7) […],0.912
same,NF-kB SEAP reporter activity,[1]; agonist: MPLA (TLR4) […],1.07
NC(=O)c1cccnc1,NF-kB SEAP reporter activity,[1]; agonist: Imiquimod (TLR7) […],0.934
same,NF-kB SEAP reporter activity,[1]; agonist: MPLA (TLR4) […],1.02
NC(=O)c1cccnc1 (library stock concentration (final ~1000-fold dilution): 10 mM),NF-kB SEAP reporter activity,[2]; agonist: LPS (TLR4) 0.1 ug/mL,1
same,NF-kB SEAP reporter activity,[2]; [4],1.03
same,NF-kB SEAP reporter activity,[2]; [5],1.03
same,NF-kB SEAP reporter activity,[2]; [6],1.08
O=C(/C=C/c1ccccc1)NC(NC(=S)Nc1ccc(Cl)cc1)C(Cl)(Cl)Cl (stereo unspecified) (library stock concentration (final ~1000-fold dilution): 10 mM),NF-kB SEAP reporter activity,[3],2.64
CN(C)CCC(CSc1ccccc1)Nc1ccc(S(=O)(=O)NC(=O)c2ccc(N3CCN(Cc4ccccc4-c4ccc(Cl)cc4)CC3)cc2)cc1[N+](=O)[O-] (stereo unspecified) (library stock concentration (final ~1000-fold dilution): 10 mM),NF-kB SEAP reporter activity,[2]; agonist: LPS (TLR4) 0.1 ug/mL,0.429
same,NF-kB SEAP reporter activity,[2]; [4],0.272
same,NF-kB SEAP reporter activity,[2]; [5],0.164
same,NF-kB SEAP reporter activity,[2]; [6],0.223
CN(C)CCC(CSc1ccccc1)Nc1ccc(S(=O)(=O)NC(=O)c2ccc(N3CCN(Cc4ccccc4-c4ccc(Cl)cc4)CC3)cc2)cc1[N+](=O)[O-] (stereo unspecified),NF-kB SEAP reporter activity,[1]; agonist: Imiquimod (TLR7) […],0.28
same,NF-kB SEAP reporter activity,[1]; agonist: MPLA (TLR4) […],0.466
Cc1c(Cn2c(C)nc3c(C(=O)O)cc(N4CCOCC4)cc32)cccc1C(F)(F)F,NF-kB SEAP reporter activity,[1]; agonist: Imiquimod (TLR7) […],0.84
same,NF-kB SEAP reporter activity,[1]; agonist: MPLA (TLR4) […],0.998
Cc1c(Cn2c(C)nc3c(C(=O)O)cc(N4CCOCC4)cc32)cccc1C(F)(F)F (library stock concentration (final ~1000-fold dilution): 10 mM),NF-kB SEAP reporter activity,[2]; agonist: LPS (TLR4) 0.1 ug/mL,1.06
same,NF-kB SEAP reporter activity,[2]; [4],0.919
same,NF-kB SEAP reporter activity,[2]; [5],0.899
same,NF-kB SEAP reporter activity,[2]; [6],0.83
CS(=O)c1ccc(-c2nc(-c3ccc(F)cc3)c(-c3ccncc3)[nH]2)cc1 (stereo unspecified),NF-kB SEAP reporter activity,[1]; agonist: Imiquimod (TLR7) […],1.52
same,NF-kB SEAP reporter activity,[1]; agonist: MPLA (TLR4) […],1.61
CS(=O)c1ccc(-c2nc(-c3ccc(F)cc3)c(-c3ccncc3)[nH]2)cc1 (stereo unspecified) (library stock concentration (final ~1000-fold dilution): 10 mM),NF-kB SEAP reporter activity,[2]; agonist: LPS (TLR4) 0.1 ug/mL,2.27
same,NF-kB SEAP reporter activity,[2]; [4],0.762
same,NF-kB SEAP reporter activity,[2]; [5],0.716
same,NF-kB SEAP reporter activity,[2]; [6],1.02
O=C(NCc1ccc(Oc2ccccc2)cc1)c1nc(-c2cc(Br)c(O)c(Br)c2)no1 (library stock concentration (final ~1000-fold dilution): 10 mM),NF-kB SEAP reporter activity,[2]; agonist: LPS (TLR4) 0.1 ug/mL,1.43
same,NF-kB SEAP reporter activity,[2]; [4],0.834
same,NF-kB SEAP reporter activity,[2]; [5],0.684
same,NF-kB SEAP reporter activity,[2]; [6],1.29
O=C(NCc1ccc(Oc2ccccc2)cc1)c1nc(-c2cc(Br)c(O)c(Br)c2)no1,NF-kB SEAP reporter activity,[1]; agonist: Imiquimod (TLR7) […],1.2
same,NF-kB SEAP reporter activity,[1]; agonist: MPLA (TLR4) […],1.51
Cc1cc(N2CC(C)NC(C)C2)ncc1-c1ccc(-c2nc3c(ccn3C)c(=O)[nH]2)cc1 (stereo unspecified),NF-kB SEAP reporter activity,[1]; agonist: Imiquimod (TLR7) […],1.14
same,NF-kB SEAP reporter activity,[1]; agonist: MPLA (TLR4) […],2.01
Cc1cc(N2CC(C)NC(C)C2)ncc1-c1ccc(-c2nc3c(ccn3C)c(=O)[nH]2)cc1 (stereo unspecified) (library stock concentration (final ~1000-fold dilution): 10 mM),NF-kB SEAP reporter activity,[2]; agonist: LPS (TLR4) 0.1 ug/mL,2.18
same,NF-kB SEAP reporter activity,[2]; [4],0.278
same,NF-kB SEAP reporter activity,[2]; [5],1.38
same,NF-kB SEAP reporter activity,[2]; [6],1.63
